Out of some 360,000 compounds screened, about 6,000 (1.7%) were called active. The shares of active, inactive and inconclusive entries below differ from those in the screen. Calls come from the whole dose curve; as a rule, active = well fitted cell-killing curve with a large enough effect; inconclusive = small, poorly fitted or top-dose-only effect, or effect the other way; inactive = flat fitted curve, though single readings scatter. Potencies of inconclusive entries are left out as doubtful fits.
Experiment: qHTS for induction of synthetic lethality in tumor cells producing 2HG: qHTS for the HT-1080-NT fibrosarcoma cell line;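 note: NT is the 2HG producing partner of a matched IDH1 knockdown line; nearly all actives have a fitted effect of over 55% in size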;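 for activity, negative = less viability: 0% = DMSO-treated cells and -100% = media-only wells without cells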
Details: HT-1080-NT fibrosarcoma viability, CellTiter-Glo ATP luminescence, 48 h; activity, negative = less viability: at 46.1 µM (top of the series) unless noted
How it was run: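 Viability by CellTiter-Glo luminescence after 48 h compound exposure at 37C of HT-1080-NT cells (750/well, RPMI, 5% FBS). % activity scaled between DMSO wells and medium-only wells, then curve-fitted and categorized by curve class.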
Potency is the fitted concentration of half-maximal effect; tags give direction and shape of the fitted curve.

Question: For CCCC1=Nc2cc(C(=O)NCCCOCC)ccc2Sc2ccccc21, which Potency is on record?
Answer: active: 1.64 µM

Question: With O=C1C=C(NCCc2cc(Br)c(O)c(Br)c2)C(=O)c2ncccc21 as the molecule, how does the Potency read?
Answer: inconclusive [cytotoxic, single point]

Question: Which “activity, negative = less viability” value does the source give for CCOC(=O)C1=C(C)Nc2sc(C(=O)c3ccc(C)cc3)c(N)c2C1c1ccc(C(=O)OC)cc1 (stereo not drawn) here?
Answer: inactive: 0.69%

Question: Which Potency does the source give for Cc1ccc(O)c(-c2cc(C(=O)Nc3ccc(S(=O)(=O)Nc4nccc(C)n4)cc3)[nH]n2)c1 here?
Answer: inconclusive [cytotoxic, partial curve, poor fit]

Question: Which Potency does the source give for CN(C)CCCNS(=O)(=O)c1ccc(N2CCN(Cc3ccc4c(c3)OCO4)CC2)c([N+](=O)[O-])c1 here?
Answer: inconclusive [cytotoxic, partial curve, poor fit]

Question: For CCn1cc(C(=O)O)c(=O)c2cc(F)c(N3CCN(C(=S)NC(=O)c4cccc(C)c4)CC3)cc21, which “activity, negative = less viability” value is on record?
Answer: inactive: 21.4%

Question: Which “activity, negative = less viability” value does the source give for Cc1c(OCc2ccccc2)c(=O)ccn1Cc1ccccc1 here?
Answer: inactive: 5.46%

Question: Which Potency does the source give for Cc1ccc(N2C(=O)CC(Cc3cccc(C)c3)C2=O)cc1 (stereo not drawn) here?
Answer: inconclusive [rising, single point]

Question: With Cc1ccccc1/C(N)=N/OC(=O)c1ccc(F)cc1 as the molecule, how does the Potency read?
Answer: inconclusive [cytotoxic, single point]

Question: For CCOC(=O)c1c(NC(=O)c2ccccc2N(C)S(=O)(=O)c2ccccc2)sc2c1CCCC2, which Potency is on record?
Answer: inconclusive [cytotoxic, full curve]

Question: For Cc1noc(C)c1CSc1nc2ccccc2c(=O)n1-c1ccc(F)cc1F, which Potency is on record?
Answer: inconclusive [cytotoxic, single point]

Question: Which Potency does the source give for CC(C)CC1C(=O)N(Cc2cn(Cc3ccco3)nn2)CCS(=O)(=O)N1Cc1ccc(-c2ccc(Cl)c(Cl)c2)cc1 (stereo not drawn) here?
Answer: inconclusive [cytotoxic, single point]

Question: For O=C(NCc1ccco1)c1cccc(NC(=O)c2ccco2)c1, which Potency is on record?
Answer: inconclusive [cytotoxic, full curve, poor fit]

Question: Which Potency does the source give for Cc1cc(=O)n2[nH]c(-c3ccc(C(C)(C)C)cc3)cc2n1 here?
Answer: inconclusive [cytotoxic, single point]

Question: Which “activity, negative = less viability” value does the source give for COc1cc(OC)cc(C(=O)N[C@H](C(=O)NCc2ccco2)C(C)C)c1 here?
Answer: inactive: -2.44%

Question: With FC(F)Sc1ccc(-n2c(-c3ccc(Cl)cc3)c[n+]3c2CCC3)cc1 as the molecule, how does the Potency read?
Answer: inconclusive [cytotoxic, partial curve]

Question: With COc1ccc2ccccc2c1CNCc1ccc(C)cc1 as the molecule, how does the Potency read?
Answer: inconclusive [cytotoxic, single point]

Question: With COc1ccccc1N1CCN(C2CCN(C(=O)c3ccc(F)cc3)CC2)CC1 as the molecule, how does the “activity, negative = less viability” value read?
Answer: inactive: 13.8%

Source: PubChem BioAssay AID686970 (National Center for Advancing Translational Sciences (NCATS), 2013)
